The text below walks through data of PMC4336329 (PLoS ONE, 2015).

Screen size: about 310,000 compounds; about 14,000 (4.5%) showed an effect of 50% or more. Effects have a minus sign here. This is one part of the list.
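Further: peak tail current of the secondary pulse compared with the same well before compound.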

Chain of human ether-à-go-go-related gene (hERG) potassium channel (Q12809 whole entry, looked up): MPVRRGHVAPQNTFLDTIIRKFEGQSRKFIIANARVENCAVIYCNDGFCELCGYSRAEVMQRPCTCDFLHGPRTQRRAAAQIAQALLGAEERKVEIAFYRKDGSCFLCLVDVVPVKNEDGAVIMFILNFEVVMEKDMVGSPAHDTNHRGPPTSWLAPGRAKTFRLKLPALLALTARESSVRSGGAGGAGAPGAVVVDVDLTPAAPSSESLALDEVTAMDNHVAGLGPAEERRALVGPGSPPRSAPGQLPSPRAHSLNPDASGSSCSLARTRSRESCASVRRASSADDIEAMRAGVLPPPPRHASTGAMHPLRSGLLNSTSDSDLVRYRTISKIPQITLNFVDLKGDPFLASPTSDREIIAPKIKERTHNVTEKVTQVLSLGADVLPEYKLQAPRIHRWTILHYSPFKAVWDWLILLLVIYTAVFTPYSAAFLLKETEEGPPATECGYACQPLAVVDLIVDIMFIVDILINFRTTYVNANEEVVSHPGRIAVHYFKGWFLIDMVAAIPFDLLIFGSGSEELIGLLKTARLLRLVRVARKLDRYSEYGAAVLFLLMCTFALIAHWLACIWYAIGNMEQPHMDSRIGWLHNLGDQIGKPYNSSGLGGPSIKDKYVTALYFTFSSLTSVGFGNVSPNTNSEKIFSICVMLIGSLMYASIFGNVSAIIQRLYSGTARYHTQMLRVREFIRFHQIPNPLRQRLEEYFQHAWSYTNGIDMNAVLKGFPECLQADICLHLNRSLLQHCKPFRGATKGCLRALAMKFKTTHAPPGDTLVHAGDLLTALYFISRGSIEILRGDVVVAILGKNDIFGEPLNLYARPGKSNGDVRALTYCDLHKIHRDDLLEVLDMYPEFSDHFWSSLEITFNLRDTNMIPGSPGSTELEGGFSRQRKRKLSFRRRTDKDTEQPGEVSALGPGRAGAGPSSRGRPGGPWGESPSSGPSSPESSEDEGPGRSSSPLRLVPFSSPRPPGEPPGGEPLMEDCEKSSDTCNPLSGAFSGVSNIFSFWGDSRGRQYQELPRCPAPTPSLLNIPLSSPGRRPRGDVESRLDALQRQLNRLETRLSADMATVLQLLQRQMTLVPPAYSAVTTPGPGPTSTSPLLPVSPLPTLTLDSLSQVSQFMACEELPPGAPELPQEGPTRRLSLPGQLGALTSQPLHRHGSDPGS

This experiment addresses human ether-à-go-go-related gene (hERG) potassium channel (human, UniProt Q12809). Put plainly: primary screen, population patch clamp on CHO cells stably expressing hERG.
Consider `CCOc1ccc(S(=O)(=O)NCCC(=O)NCC(c2ccc(OC)cc2)N2CCCC2)cc1` (stereo not shown), for which the “hERG current change (%, negative = inhibition) at 10uM” value is on record as -8.04%.

With `COc1cc(N)c(Cl)cc1C(=O)OCC(=O)c1ccc2c(c1)NC(=O)CO2`, the “hERG current change (%, negative = inhibition) at 10uM” value was determined as 1.68%.

As to `COc1ccc(C2C(C(=O)c3ccco3)=C(O)C(=O)N2CCN2CCOCC2)cc1` (stereo not shown), the “hERG current change (%, negative = inhibition) at 10uM” value is reported as 6.2%.

As for `O=C(O)CCC(=O)NCC(=O)c1ccc(F)cc1`, the “hERG current change (%, negative = inhibition) at 10uM” value is reported as 11.5%.

In the case of `C=CC[N+]1(CC=C)CCOCC1.[Br-]`, the “hERG current change (%, negative = inhibition) at 10uM” value was found to be 38.2%.

Take `Cc1ccsc1-c1n[nH]c(=S)n1CC(C)C`: the “hERG current change (%, negative = inhibition) at 10uM” value is given as 21.5%.

Take `OC1CCN(c2c3c(nc4cc(-c5ccc(F)cc5)nn24)CCC3)CC1`: the “hERG current change (%, negative = inhibition) at 10uM” value was -7.45%.

In the case of `COc1ccc(CN(C)C(=O)CNC(=O)CNC(=O)c2ccc(Cl)cc2Cl)cc1F`, the “hERG current change (%, negative = inhibition) at 10uM” value was -43.5%.

For the molecule `O=C(c1ccccc1Oc1ccccc1)N1CCN(c2ccccc2)CC1`, the “hERG current change (%, negative = inhibition) at 10uM” value is reported as -25.7%.

In the case of `COc1ccc(CC(=O)O/N=C(\N)c2ccc(C)cc2)cc1`, the “hERG current change (%, negative = inhibition) at 10uM” value was found to be 7.58%.

As to `Cc1ccc(NC(=S)N/N=C2\CC3CC=CC23)c(C)c1` (stereo not shown), the “hERG current change (%, negative = inhibition) at 10uM” value is 41.7%.

Regarding `Nc1ccccc1Nc1cc(-c2cccc(Cl)c2)nn1-c1ccccc1`, the “hERG current change (%, negative = inhibition) at 10uM” value came out at 3.67%.

Turning to `CSc1ccccc1NC(=O)c1cnccn1`, the “hERG current change (%, negative = inhibition) at 10uM” value is 9.12%.

As to `CN(C)c1nc(NCc2ccccc2)nc(Oc2ccc(=O)[nH]n2)n1`, the “hERG current change (%, negative = inhibition) at 10uM” value is on record as -10.2%.

Consider `CCOC(=O)C1CCCN(C(=O)c2cccc(S(=O)(=O)N3CCOCC3)c2)C1` (stereo not shown), for which the “hERG current change (%, negative = inhibition) at 10uM” value was found to be 15.6%.

As to `CN(C)C(=O)CSc1nnc(Cc2ccc([N+](=O)[O-])cc2)o1`, the “hERG current change (%, negative = inhibition) at 10uM” value is listed as -9.75%.

Take `Cn1c(=O)c(C(=O)CN2CC(=O)Nc3ccccc32)c(N)n(Cc2ccccc2)c1=O`: the “hERG current change (%, negative = inhibition) at 10uM” value is on record as 20.5%.

In the case of `CC(NC(=O)C(=O)NCCCn1ccnc1)c1ccccc1` (stereo not shown), the “hERG current change (%, negative = inhibition) at 10uM” value was 15.6%.

Turning to `COc1ccc(C(C(O)C(=O)c2c[nH]c3ccccc23)N2CCN(c3ccccc3)CC2)cc1` (stereo not shown), the “hERG current change (%, negative = inhibition) at 10uM” value was -13.8%.

In the case of `COc1ccc(N2CCN(C(=O)CCCCCn3c(=O)[nH]c4ccsc4c3=O)CC2)cc1`, the “hERG current change (%, negative = inhibition) at 10uM” value is reported as -35.1%.

Turning to `O=S1(=O)CC=C(CSC(=S)NC2CCS(=O)(=O)C2)C1` (stereo not shown), the “hERG current change (%, negative = inhibition) at 10uM” value is 20.5%.

On to `CCN(CC(=O)NCc1ccc(Cl)cc1)C(=O)COc1cccc(Cl)c1`, for which the “hERG current change (%, negative = inhibition) at 10uM” value is -73.5%.

As to `CC(=O)N1CCN(c2ccc(NCc3ccc(C)s3)cc2)CC1.Cl`, the “hERG current change (%, negative = inhibition) at 10uM” value amounted to 0.9%.

Regarding `O=C(NCCc1ccc(Cl)cc1)c1cccs1`, the “hERG current change (%, negative = inhibition) at 10uM” value was -3.58%.

In the case of `COc1ccc(N2CCN(S(=O)(=O)/C=C/c3ccccc3)CC2)cc1`, the “hERG current change (%, negative = inhibition) at 10uM” value is listed as 1.54%.

Consider `COCCNC(=O)CSc1ccc(Cl)cc1`, for which the “hERG current change (%, negative = inhibition) at 10uM” value is 11.9%.

Regarding `O=C1c2oc3ccc(Cl)cc3c(=O)c2C(c2cccc(Br)c2)N1CCO` (stereo not shown), the “hERG current change (%, negative = inhibition) at 10uM” value is reported as -13.1%.

Regarding `COc1cccc(C2CC(c3ccc(Br)cc3)=NN2C(=O)c2ccncc2)c1OC` (stereo not shown), the “hERG current change (%, negative = inhibition) at 10uM” value was -29.7%.

Consider `CC(=O)Nc1ccc(C(=O)NN2C(=O)NC3(CCCCC3)C2=O)cc1`, for which the “hERG current change (%, negative = inhibition) at 10uM” value was -6.63%.

In the case of `COc1ccc(CCNC(=S)Nc2ccc(S(=O)(=O)Nc3ncccn3)cc2)cc1OC`, the “hERG current change (%, negative = inhibition) at 10uM” value is given as 21.2%.

As to `COc1ccc(C(=O)N2CCCC(CCC(=O)NCc3ccc(F)c(F)c3)C2)cc1F` (stereo not shown), the “hERG current change (%, negative = inhibition) at 10uM” value is -22.8%.

As for `CCC(C)(C)NC(=O)C(NS(=O)(=O)c1cccs1)c1ccccc1` (stereo not shown), the “hERG current change (%, negative = inhibition) at 10uM” value came to 15.3%.

With `COc1ccc(OC)c(-c2csc(NC(=O)COC(=O)C3CC3)n2)c1`, the “hERG current change (%, negative = inhibition) at 10uM” value is -7.02%.

Consider `CC1CCN(S(=O)(=O)c2ccc(NC(=O)C3CCN(C(=O)c4ccco4)CC3)cc2)CC1`, for which the “hERG current change (%, negative = inhibition) at 10uM” value is reported as -3.5%.

Turning to `CC1(C)C=C2C(=NN(c3ccccc3)C(N)=C2C#N)CO1`, the “hERG current change (%, negative = inhibition) at 10uM” value is on record as 4.09%.

For `CCCCOc1ccc(C(=O)NCC(=O)N2CC=C(c3ccccc3)CC2)cc1`, the “hERG current change (%, negative = inhibition) at 10uM” value worked out at 16.8%.

Turning to `Cc1ccc(S(=O)(=O)NCc2ccc(C(=O)NCCCN3CCC(Cc4ccccc4)CC3)cc2)cc1`, the “hERG current change (%, negative = inhibition) at 10uM” value is -80.6%.

For the molecule `COc1ccc(N2CCN(CCNC(=O)Nc3ccc([N+](=O)[O-])cc3OC)CC2)cc1`, the “hERG current change (%, negative = inhibition) at 10uM” value is recorded as -17.1%.

On to `O=C(COC(=O)C1CCCCC1)Nc1ccc(N2CCCCC2)cc1`, for which the “hERG current change (%, negative = inhibition) at 10uM” value came out at 2.16%.

Consider `O=C1NC(=S)N/C1=C/c1cccc2ccccc12`, for which the “hERG current change (%, negative = inhibition) at 10uM” value turned out to be 8.5%.

Regarding `O=C(NCc1cccs1)c1csc2ccccc12`, the “hERG current change (%, negative = inhibition) at 10uM” value is 4.73%.

In the case of `COCCn1cnc2c1c(=O)n(CC(=O)OCC(=O)NCC(F)(F)F)c(=O)n2Cc1ccccc1`, the “hERG current change (%, negative = inhibition) at 10uM” value is reported as 4.6%.

Take `Cc1cccc(N(C(=O)Cn2nnc(-c3ccccc3F)n2)C(C(=O)NC(C)(C)C)c2ccncc2)c1` (stereo not shown): the “hERG current change (%, negative = inhibition) at 10uM” value is on record as 37.7%.
